In PubChem BioAssay AID504832 (National Center for Advancing Translational Sciences (NCATS), 2011):
About 18,000 (5.8%) of roughly 310,000 compounds were called active. This list was built around the results that the source calls inconclusive (neither active nor inactive); the mix of calls is not that of the screen. The call rests on the fitted dose curve; in most records, active means well fitted inhibition curve with a large enough effect; inconclusive means small, poorly fitted or top-dose-only effect, or another doubt; inactive means no such curve, though single readings can be large or run the other way. No potency is given beside an inconclusive call; the fits are too rough.

Test: Primary qHTS for delayed death inhibitors of the malarial parasite plastid, 48 hour incubation
Conditions: P. falciparum luciferase growth in erythrocytes; series mostly up to 28.7 µM
Procedure, shortened: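 Luminescence readout; reporter = integrated firefly luciferase in P. falciparum. RBC culture at 2% hematocrit, 0.1% parasitemia final, 37 C/5% CO2; decreased signal taken as growth inhibition.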
Potency means the concentration at half of the fitted maximal effect; tags describe the fitted curve by direction and shape.

| Structure (SMILES) | Potency |
| --- | --- |
| CCOC(=O)C1=C(c2ccccc2)Nc2ncnn2C1c1cc(OC)ccc1OC (centres undefined) | inconclusive [inhibitor, single point] |
| C#CCOCCOCCOCCNc1nc(N2CCN(C(=O)[C@H](CCC(=O)O)n3cc(C(N)CC(C)C)nn3)CC2)nc(N2CCN(C(=O)[C@H](Cc3cc4ccccc4[nH]3)n3cc(C(N)[C@H](C)CC)nn3)CC2)n1 (some centres undefined) | inactive |
| CC(=O)c1ccc(N2CCN(C(=O)CCN3C(=S)NC(C)(C)CC3C)CC2)cc1 (centres undefined) | inconclusive [inhibitor, single point] |
| CCOc1ccc(CNC(=O)C2CCCN(c3nnc(C)c4c(C)n(-c5ccccc5)nc34)C2)cc1 (centres undefined) | inconclusive [inhibitor, single point] |
| O=C(CN1CCc2cc3c(cc2C1)OCCCO3)Nc1ccc(S(=O)(=O)N2CCCC2)cc1 | inconclusive [inhibitor, partial curve] |
| CC1CCCN(C2(O)C(=O)Nc3c(C(F)(F)F)cccc32)C1 (centres undefined) | active: 4.15 µM |
| CCCCN(CCCC)S(=O)(=O)c1ccc2oc(C(=O)N3CCOCC3)c(C)c2c1 | inconclusive [inhibitor, partial curve] |
| Nc1nc(SCc2ccc(Cl)cc2)ns1 | inactive |
| Cc1ccc(C(NC(=O)c2ccccc2)C(Cl)Cl)cc1 (centres undefined) | inconclusive [inhibitor, single point] |
| CCOC(=O)Cc1cc(=O)c2cc(C)ccc2[nH]1 | inconclusive [inhibitor, single point] |
| CCCCN(C(=O)C(C)Oc1ccc(Br)cc1)c1c(N)n(CC(C)C)c(=O)[nH]c1=O (centres undefined) | inconclusive [inhibitor, single point] |
| CC1Cc2ccccc2N1CC(=O)Nc1ccc(S(=O)(=O)N(C)C)cc1 (centres undefined) | inconclusive [inhibitor, partial curve] |
| CC(/C=N/n1c(C2CCCCC2)n[nH]c1=S)=C\c1ccccc1 | inconclusive [inhibitor, single point] |
| O=C1Nc2cc(C(=O)N3CCC4(CC3)OCCO4)ccc2S/C1=C\c1ccccc1 | inconclusive [inhibitor, partial curve, poor fit] |
| CC(=O)Nc1ccc(S(=O)(=O)Nc2nc(CN3CCOCC3)nc3sc4c(c23)CCCC4)cc1 | inconclusive [inhibitor, single point] |
| CCC(=O)O[C@]1(C(=O)CCl)[C@@H](C)C[C@H]2[C@@H]3CCC4=CC(=O)C=C[C@]4(C)[C@@]3(F)[C@@H](O)C[C@@]21C | active: 4.65 µM |
| Cc1oc2ccc(OS(C)(=O)=O)cc2c1C(=O)OC(C)C | inactive |
| Cc1nn(C(C)(C)C)c(OC(=O)CC(C)C)c1S(=O)(=O)c1ccccc1 | inconclusive [inhibitor, partial curve] |
| CCCNC(=O)c1ccc(N2CCC3(CC2)CC(c2ccccc2)=NO3)c(NC(=O)c2cccc(OC)c2)c1 | inconclusive [inhibitor, partial curve, poor fit] |
| O=C(CN(c1ccccc1)S(=O)(=O)c1ccccc1)N1CCN(Cc2ccc3c(c2)OCO3)CC1 | inconclusive [inhibitor, single point] |
| CC(C)C[C@H](NC(=O)c1[nH]cnc1C(=O)Nc1ccc(Cl)cc1)C(=O)OC(C)(C)C | active: 13.1 µM |
| CNc1ccc(Br)cc(C(=O)/C=C/c2cccc(OC)c2)c1=O | inconclusive [inhibitor, single point] |

| Structure (SMILES) | Potency |
| --- | --- |
| CC(OC(=O)c1cccc(S(=O)(=O)N2CCCC2)c1)C(=O)NC1CCCCC1C (centres undefined) | inconclusive [inhibitor, single point] |
| CCOC(=O)c1[nH]c(C=O)c(C(=O)OCC)c1C | inconclusive [inhibitor, partial curve, poor fit] |
| CC(C)(C)CC(=O)NCCc1csc(-c2ccccc2)n1 | inactive |
| CC(=O)c1cccc(NC(=O)c2ccc(N(C)S(=O)(=O)c3ccc(C)cc3)cc2)c1 | inconclusive [inhibitor, single point] |
| COc1ccc(NC2=CC(c3ccc(OC)c(OC)c3)N(c3ccc(OC)cc3)C2=O)cc1 (centres undefined) | inconclusive [inhibitor, single point] |
| CC1CCCCN1Cc1c[nH]c2ccccc12 (centres undefined) | inconclusive [inhibitor, partial curve, poor fit] |
| CCOC(=O)c1c(C)[nH]c(C)c1C(=O)COC(=O)/C=C/c1ccc(OC(F)F)cc1 | inconclusive [inhibitor, single point] |
| COc1ccc(C(C)NCCC(c2ccc(OC(C)C)cc2)c2ccccc2OC)cc1 (centres undefined) | inconclusive [inhibitor, single point] |
| CCCCn1c(N)c(N(CCC(C)C)C(=O)CC2OC(=O)c3ccccc32)c(=O)[nH]c1=O (centres undefined) | active: 8.28 µM |
| COc1ccc(OC(C)C(=O)N(C)Cc2nc(-c3cccc(C)c3)no2)cc1 (centres undefined) | inactive |
| O=C1C(c2ccc(F)cc2)N(CC2COc3ccccc3O2)C(=O)CN1C1CCCCC1 (centres undefined) | active: 2.33 µM |
| CC1CC(=S)Nc2ccccc2N1C(=O)Nc1ccccc1 (centres undefined) | active: 3.29 µM |
| CCOC(=O)c1nn(-c2ccccc2)c(=O)cc1SC(C)CC (centres undefined) | inconclusive [inhibitor, partial curve, poor fit] |
| OCCNCc1cc(Br)ccc1OCc1ccc(Cl)cc1 | inconclusive [inhibitor, partial curve, poor fit] |
| CC(C#N)Sc1ccc(S(=O)(=O)N2CCCC2)cn1 (centres undefined) | inconclusive [inhibitor, single point] |
| Cc1ccc(C)c(NCc2ccccc2CO)c1 | inactive |
| CC1=NN(c2ccccc2)C(=O)C1N=Nc1ccc(C)cc1 (centres undefined) | inactive |
| CC(=O)N1c2ccc(S(=O)(=O)NCCC(=O)Nc3ccc(C)c(F)c3)cc2CC1C (centres undefined) | inconclusive [inhibitor, partial curve, poor fit] |
| CC(=O)Nc1ccc(Nc2cc(C)nc3c(-c4ccccc4)cnn23)cc1 | inactive |
| CN1CCN(C(c2cc3cc4c(cc3[nH]c2=O)OCCO4)c2nnnn2C2CCCC2)CC1 (centres undefined) | inactive |
| Cc1cc2oc(=O)cc(CN3CCC(C)CC3)c2cc1C | inconclusive [inhibitor, single point] |
| Cc1ccc(S(=O)(=O)CC(=O)c2ccc(C(C)(C)C)cc2)cc1 | active: 2.33 µM |

| Structure (SMILES) | Potency |
| --- | --- |
| O=C(O)c1nccnc1C(=O)NCCc1c[nH]c2ccccc12 | inactive |
| CC(C)Cc1nnc(NC(=O)CSc2nc(N)cc(=O)[nH]2)s1 | inactive |
| CSCC[C@H](NC(=O)OC(C)(C)C)C(=O)N1CCC(C(=O)N[C@@H](Cc2c[nH]c3ccccc23)C(=O)O)CC1 | inconclusive [inhibitor, partial curve, poor fit] |
| N=C1SC(c2ccccc2)C(=O)N1c1ncc(Cc2ccccc2Cl)s1 (centres undefined) | inconclusive [inhibitor, single point] |
| Cc1csc2nc(O)c(C(=O)NCCC3=CCCCC3)c(=O)n12 | active: 10.4 µM |
| Cc1cc(C)n(-c2nc3ccccc3c(=O)n2OCCOc2ccccc2)n1 | inconclusive [inhibitor, partial curve, poor fit] |
| COP(=O)(C#Cc1ccccc1)C(O)c1ccc(Br)cc1 (centres undefined) | inconclusive [inhibitor, single point] |
| c1ccc(-c2ccc(C3=Nn4c(Cn5nnc6ccccc65)nnc4SC3)cc2)cc1 | inconclusive [inhibitor, partial curve] |
| CCn1nnnc1NCc1ccc(OCc2c(F)cccc2Cl)c(OC)c1 | inconclusive [inhibitor, partial curve] |
| CCN(CC(=O)Nc1ccc2c(c1)OCCO2)CC(=O)Nc1ccc2c(c1)OCO2 | inconclusive [inhibitor, partial curve, poor fit] |
| CCc1ccccc1N(CC(=O)NC(C)C)C(=O)CCC(=O)Nc1nccs1 | inconclusive [inhibitor, partial curve] |
| Cn1cc(C(=O)N/N=C/c2cccs2)c2ccccc21 | inconclusive [inhibitor, single point] |
| Cc1ccc(C)c(-c2nnc(OCC(=O)Nc3cc(C)on3)c3ccccc23)c1 | inconclusive [inhibitor, partial curve, poor fit] |
| CC(Oc1ccc2oc3ccccc3c2c1)C(=O)NC12CC3CC(CC(C3)C1)C2 (centres undefined) | inconclusive [inhibitor, partial curve, poor fit] |
| Cc1ccc2[nH]c(O)c(N=NC(N)=S)c2c1 | inconclusive [inhibitor, single point] |
| O=C(O)CCCC(=O)N1N=C(c2c(-c3ccccc3)c3cc(Cl)ccc3[nH]c2=O)CC1c1cccs1 (centres undefined) | inactive |
| CCN(CC)S(=O)(=O)c1cccc(NC(=O)c2cc3ccccc3o2)c1 | inconclusive [inhibitor, partial curve, poor fit] |
| O=S(=O)(c1ccc(F)cc1)N1CCN(Cc2cc3c(cc2Br)OCCO3)CC1 | inconclusive [inhibitor, single point] |
| CCOC(=O)CSc1nnc(-c2ccc(NS(=O)(=O)c3ccc(C)cc3)cc2)o1 | inconclusive [inhibitor, single point] |
| CC(C)CCNCC(O)CON=C1c2ccccc2-c2ccccc21 (centres undefined) | inconclusive [inhibitor, partial curve] |
